For 63 molecules, relative growth results are on record in the supplement of paper PMC9446081.

Out of some 39,000 compounds screened, about 220 (0.56%) showed activity. This is one part of the list.
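Also: static incubation at 37 °C against the wild-type strain, values averaged over two biological replicates.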

The test system of the assay is Escherichia coli K-12 BW25113. In words: relative growth (OD600 normalised to plate interquartile mean) (fraction); higher = less growth inhibition, active = 0.2 or less. Conditions: 50 µM; LB; incubation time: overnight (16-24 h).
For `O=c1c2ccccc2oc2ccccc12`, the relative growth was inactive: 1.03. Consider `COCC(=O)N(C)C[C@@H]1Oc2cc(C#Cc3cccnc3)ccc2S(=O)(=O)N([C@@H](C)CO)C[C@@H]1C`, for which the relative growth was inactive: 1.02. To `Cc1ccc(S(=O)(=O)Nc2ccc3c(c2)C(=O)N([C@@H](C)CO)C[C@H](C)[C@H](CN(C)C(=O)Nc2ccc(C(F)(F)F)cc2)OCCCC[C@H](C)O3)cc1` belongs inactive: 1.01; to `COc1ccc2c3c([nH]c2c1)[C@@H](CO)N(C[C@]13CCN(CC1)C(=O)Nc1cccc(c1)F)C(=O)c1ccccc1`, inactive: 0.982. Turning to `C[C@H](CO)N1C[C@H](C)[C@H](CN(C)S(C)(=O)=O)Oc2c(NC(=O)Nc3ccc4c(c3)OCO4)cccc2C1=O`, the relative growth is inactive: 0.992.

`O=C(C[C@@H]1C=C[C@H](NC(=O)c2ccc(F)cc2)[C@@H](CO)O1)NCc1ccncn1`: the relative growth is inactive: 0.994.

Regarding `N[C@H](c1ccc2c(c1)OCCO2)c1ccco1`, the relative growth is inactive: 1.02.

For `CS(=O)(=O)[O-].C[n+]1ccccc1C=NO`, the relative growth was inactive: 0.991. The same measure for `CO[C@H]1CN(S(=O)(=O)c2cn(C)cn2)[C@H]2COC[C@@H]12`: inactive: 0.983; for `COc1ccc(C(=O)NC(CO)(CO)CO)cc1OC`: inactive: 0.908; for `O=C1N(Cc2ccccc2)Cc2ccccc2[C@H]2OC(c3ccc(OCCCO)cc3)=N[C@@]12Cc1ccccc1`: inactive: 1.02. The same measure for `Cn1cnc(S(=O)(=O)N[C@@H]2C=C[C@H](CC(=O)Nc3ccccc3)O[C@@H]2CO)c1`: inactive: 1.02; for `Nc1ccc(Sc2ccc3ccccc3c2Cl)c(Cl)c1`: inactive: 0.932; for `COc1ccc(C#Cc2ccc3c(c2)O[C@@H](CN(C)C(=O)c2ccccn2)[C@H](C)CN([C@H](C)CO)S3(=O)=O)cc1`: inactive: 1. As to `C[C@@H]1CN([C@H](C)CO)C(=O)c2cc(NC(=O)Cc3cn(C)c4ccccc34)ccc2O[C@@H]1CN(C)S(=O)(=O)c1cn(C)cn1`, the relative growth was inactive: 1.

`C[C@@H]1CN([C@@H](C)CO)C(=O)Cc2cc(NS(=O)(=O)c3ccc(F)cc3)ccc2O[C@H]1CN(C)S(C)(=O)=O`: the relative growth was inactive: 1.02.

For the molecule `CCC[C@@H](O)C#Cc1cnc2c(c1)C(=O)N([C@H](C)CO)C[C@H](C)[C@H](CN(C)C(=O)Nc1c(C)noc1C)O2`, the relative growth is inactive: 1.04. The same measure for `CO[C@@H]1CN(C)C(=O)c2cc(NC(=O)Nc3ccccc3F)ccc2OC[C@H](C)N(CCC(F)(F)F)C[C@H]1C`: inactive: 0.999; for `O=C(Nc1ccccc1)c1ccco1`: inactive: 0.917; for `Cc1noc(C)c1NC(=O)Nc1ccc2c(c1)CC(=O)N([C@H](C)CO)C[C@@H](C)[C@@H](CN(C)S(=O)(=O)c1cccs1)O2`: inactive: 0.984. With `CO[C@@H]1CN(C)C(=O)c2ccc(NC(=O)Nc3ccc(F)cc3)cc2OC[C@@H](C)N(C(=O)c2ccc(F)cc2)C[C@H]1C`, the relative growth is inactive: 1.

Take `Cc1cccc(N(CC(=O)O)CC(=O)O)c1`: the relative growth was inactive: 1.04. The same measure for `COCC#Cc1cnc2c(c1)C(=O)N([C@H](C)CO)C[C@@H](C)[C@@H](CN(C)S(=O)(=O)c1cn(C)cn1)O2`: inactive: 0.997; for `C[C@@H]1CN([C@H](C)CO)C(=O)Cc2cc(NS(=O)(=O)c3cn(C)cn3)ccc2O[C@@H]1CN(C)S(=O)(=O)c1cccs1`: inactive: 0.975; for `CC(C)N1CC[C@H](CN(C)Cc2ccc(Oc3ccccc3)cc2)Oc2c(NC(=O)c3ccncc3)cccc2C1=O`: inactive: 1.01.

Take `C[C@H](CO)N1C[C@H](C)[C@H](CN(C)Cc2ccc(C(=O)O)cc2)Oc2ccc(NC(=O)c3ccncc3)cc2C1=O`: the relative growth is inactive: 0.994. As to `C[C@@H]1CN([C@H](C)CO)C(=O)c2cc(NC(=O)CCC(F)(F)F)ccc2O[C@@H](C)CCCCO[C@H]1CN(C)C(=O)c1ccccc1`, the relative growth is inactive: 0.99. As to `C[C@H](CO)N1C[C@H](C)[C@@H](CN(C)S(C)(=O)=O)Oc2ccc(NC(=O)CCC(F)(F)F)cc2C1=O`, the relative growth is inactive: 1.02. Turning to `COCCCNC(=O)[C@@]1(Sc2ccc(C)cc2)CC(=O)N(Cc2ccccc2Cl)[C@@H]1c1ccc(CO)cc1I`, the relative growth was inactive: 0.925. Turning to `C[C@H]1CN([C@@H](C)CO)C(=O)c2cc(NC(=O)Cn3cnnn3)ccc2O[C@@H]1CN(C)S(C)(=O)=O`, the relative growth is inactive: 0.996. As to `C[C@@H]1CCCCO[C@H](CN(C)CC2CCCCC2)[C@H](C)CN([C@@H](C)CO)C(=O)c2cc(NC(=O)c3ccccc3)ccc2O1`, the relative growth was inactive: 0.971.

Take `C[C@H](CO)N1C[C@H](C)[C@@H](CN(C)C(=O)Nc2ccc(C(F)(F)F)cc2)Oc2c(NS(C)(=O)=O)cccc2C1=O`: the relative growth is inactive: 0.974. In the case of `Cc1ccc(S(=O)(=O)Nc2ccc3c(c2)C(=O)N([C@@H](C)CO)C[C@H](C)[C@H](CN(C)S(=O)(=O)c2ccc(C)cc2)OCCCC[C@H](C)O3)cc1`, the relative growth was inactive: 1.05. Consider `C[C@@H]1CCCCO[C@H](CN(C)Cc2ccc(C(F)(F)F)cc2)[C@H](C)CN([C@H](C)CO)C(=O)c2cc(N(C)C)ccc2O1`, for which the relative growth is inactive: 1. Regarding `CCN1C(=O)CO[C@H]2CN(C(=O)C3CCOCC3)C[C@@H]21`, the relative growth was inactive: 0.979. The same measure for `C[C@@H]1CN([C@@H](C)CO)C(=O)Cc2cc(NC(=O)c3ccncc3)ccc2O[C@H]1CN(C)S(=O)(=O)c1ccc(F)cc1`: inactive: 0.983.

Turning to `C[C@@H]1CCCCO[C@H](CN(C)C(=O)NC2CCCCC2)[C@H](C)CN([C@@H](C)CO)C(=O)c2cc(NC(=O)Nc3ccc(C(F)(F)F)cc3)ccc2O1`, the relative growth is inactive: 1.02. The same measure for `C[C@H](CO)N1C[C@H](C)[C@@H](CN(C)S(=O)(=O)c2cccc(F)c2)Oc2ncc(C#CC3CCCC3)cc2C1=O`: inactive: 1.02.

Consider `C[C@@H]1CN([C@@H](C)CO)C(=O)c2cc(NC(=O)CCN3CCOCC3)ccc2O[C@H]1CN(C)C(=O)Nc1ccc(F)cc1`, for which the relative growth was inactive: 1.02. To `COc1ccc(S(=O)(=O)Nc2ccc3c(c2)CC(=O)N([C@H](C)CO)C[C@@H](C)[C@@H](CN(C)S(=O)(=O)c2ccc(C)cc2)O3)cc1` belongs inactive: 1.02.

On to `COc1ccc(S(=O)(=O)N(C)C[C@H]2Oc3ccc(NC(=O)NC(C)C)cc3C(=O)N([C@@H](C)CO)C[C@H]2C)cc1`, for which the relative growth was inactive: 1.02. On to `C[C@@H]1CN([C@@H](C)CO)C(=O)c2c(c3ccccc3n2C)-c2ccccc2CO[C@@H]1CN(C)Cc1cccc2c1OCCCO2`, for which the relative growth was inactive: 0.998. In the case of `O=C(/C=C/c1ccccc1)OC[C@H]1O[C@@H](O[C@@H]2CC(C(=O)O)=C[C@@H](O)[C@H]2O)[C@H](O)[C@@H](O)[C@@H]1O`, the relative growth is inactive: 1.02. The same measure for `C[C@@H]1CN([C@H](C)CO)C(=O)c2cc(NC(=O)c3ccncc3)ccc2O[C@H]1CN(C)Cc1ccc(Oc2ccccc2)cc1`: inactive: 1.03; for `Cc1cc(=O)n(-c2ccccc2)n1C`: inactive: 1.02; for `C[C@@H]1CN([C@H](C)CO)C(=O)c2cc(NS(=O)(=O)c3ccc(F)cc3)ccc2O[C@@H](C)CCCCO[C@@H]1CN(C)S(=O)(=O)c1cn(C)cn1`: inactive: 1.01. To `C[C@@H]1CN([C@H](C)CO)C(=O)c2cc(NS(=O)(=O)c3ccccc3)ccc2O[C@H]1CN(C)CC1CC1` belongs inactive: 0.98.

With `CCOc1oc(C(=O)NC2CCCCC2)c(-c2ccc(Cl)cc2)c1S(=O)(=O)c1ccc(Cl)cc1`, the relative growth was inactive: 1.03. Regarding `C[C@@H]1CN([C@H](C)CO)C(=O)c2cc(NS(=O)(=O)c3ccc(F)cc3)ccc2O[C@@H](C)CCCCO[C@H]1CN(C)Cc1ccc2c(c1)OCO2`, the relative growth is inactive: 1.01. The same measure for `O=S(=O)(NCC[C@H]1CC[C@@H](NS(=O)(=O)c2ccccc2Cl)[C@H](CO)O1)c1ccc(F)cc1`: inactive: 0.964; for `CC(=O)N1[C@@H](CO)[C@@H](c2ccccc2)[C@@H]1CNC(=O)CN1CCOCC1`: inactive: 0.952.

In the case of `CN(C)C(=N)NCCC[C@H](N)C(=O)O`, the relative growth is inactive: 0.995. The same measure for `O=S1(=O)CC[C@H](S(=O)(=O)N2CCOCC2)C1`: inactive: 1.01; for `COc1ccccc1CNC(=O)C[C@@H]1C[C@H]2c3cc(NC(=O)c4ccc5c(c4)OCO5)ccc3O[C@H]2[C@@H](CO)O1`: inactive: 1.02; for `COc1ccc(C#Cc2ccc3c(c2)[C@]2(C(=O)N3)[C@H](C(=O)N3CCN(c4ncccn4)CC3)[C@H]3C(=O)O[C@H](c4ccccc4)[C@H](c4ccccc4)N3[C@@H]2c2ccc(O)cc2)cc1`: inactive: 1.03.

For the molecule `COc1ccc(CN(C)C[C@@H]2Oc3ccc(NC(=O)Nc4cccc5ccccc45)cc3C(=O)N([C@@H](C)CO)C[C@H]2C)cc1`, the relative growth is inactive: 1.01. Turning to `C[C@@H]1CN([C@@H](C)CO)C(=O)c2cccc(NC(=O)Nc3cccc4ccccc34)c2O[C@H]1CN(C)S(=O)(=O)c1ccccc1`, the relative growth was inactive: 1.01.

As for `O=C(C[C@@H]1C[C@@H]2c3cc(NS(=O)(=O)c4ccc(F)cc4)ccc3O[C@@H]2[C@H](CO)O1)NCc1ccncc1`, the relative growth was inactive: 1.01.

In the case of `C[C@@H]1CCCCO[C@@H](CN(C)Cc2ccccc2)[C@H](C)CN([C@@H](C)CO)C(=O)c2cc(NC(=O)Nc3ccc(F)cc3)ccc2O1`, the relative growth is inactive: 0.974.

Turning to `COc1ccc(CNC(=O)C[C@H]2C[C@H]3c4cc(NC(=O)NC5CCCC5)ccc4O[C@H]3[C@@H](CO)O2)cc1`, the relative growth is inactive: 0.999. The same measure for `C[C@@H]1CN([C@H](C)CO)C(=O)c2cc(NS(=O)(=O)c3ccc(F)cc3)ccc2O[C@H]1CN(C)S(=O)(=O)c1cn(C)cn1`: inactive: 1.04. Turning to `COCC#Cc1ccc2c(c1)O[C@H](CN(C)C(=O)Nc1ccccc1F)[C@H](C)CN([C@H](C)CO)S2(=O)=O`, the relative growth is inactive: 1.01.

For `C[C@H](CO)N1C[C@H](C)[C@@H](CN(C)Cc2ccc3c(c2)OCO3)Oc2ccc(NS(=O)(=O)c3ccccc3)cc2CC1=O`, the relative growth is inactive: 0.992.
